Measurements as given in PubChem BioAssay AID1671188 (National Center for Advancing Translational Sciences (NCATS), 2021).
In all, about 100,000 compounds went through this assay and about 250 (0.25%) were called active. The inconclusive results got no clear call from the source; some entries with a clear call stand among them for comparison. Calls come from the whole dose curve; as a rule, active = well fitted inhibition curve with a large enough effect; inconclusive = small, poorly fitted or top-dose-only effect; inactive = flat fitted curve, though single readings scatter. Potencies of inconclusive entries are left out as doubtful fits.

target: Alanine aminotransferase 2 (Homo sapiens) (UniProt Q8TD30); assay: Primary qHTS assay for inhibitors of Glutamate pyruvate transaminase 2 (GPT2); conditions: Recombinant GPT2, coupled pyruvate oxidase/HRP Amplex Red fluorescence; activity change, negative = inhibition: at 57.7 µM (top of the series) unless noted; series mostly up to 57.7 µM; note: nearly all actives have a fitted effect of over 60% in size
Summary of the method: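 Recombinant GPT2 (10ng/uL) with 250uM a-KG and 2mM L-alanine, 30 min at room temperature, in HEPES pH 7.5 buffer. Pyruvate detected by pyruvate oxidase/HRP/Amplex Red fluorescence after 30 min in the dark; AOA (50uM) as positive control.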
% is set by controls: 0 for no effect and ±100 for the full control effect; potency is the fitted concentration of half-maximal effect; tags give direction and shape of the fitted curve.

UniProt Q8TD30, sequence (Q8TD30 whole entry, looked up): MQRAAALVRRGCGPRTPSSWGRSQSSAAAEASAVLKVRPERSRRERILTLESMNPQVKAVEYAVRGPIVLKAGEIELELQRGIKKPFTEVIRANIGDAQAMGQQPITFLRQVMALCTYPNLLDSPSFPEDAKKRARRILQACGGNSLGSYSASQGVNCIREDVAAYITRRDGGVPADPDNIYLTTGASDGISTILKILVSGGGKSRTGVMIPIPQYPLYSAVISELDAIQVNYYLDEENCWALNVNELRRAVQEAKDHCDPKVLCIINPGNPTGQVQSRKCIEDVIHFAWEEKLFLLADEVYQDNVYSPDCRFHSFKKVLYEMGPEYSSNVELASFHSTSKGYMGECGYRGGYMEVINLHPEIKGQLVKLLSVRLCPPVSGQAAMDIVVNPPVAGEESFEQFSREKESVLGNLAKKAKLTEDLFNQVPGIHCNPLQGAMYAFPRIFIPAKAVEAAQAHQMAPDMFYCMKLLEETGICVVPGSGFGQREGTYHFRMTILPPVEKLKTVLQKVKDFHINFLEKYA

Row | Structure (SMILES) | Potency | activity change, negative = inhibition | outcome
1 | CC(=O)c1[nH]c(C)c(C(=O)N[C@H]2[C@H]3CCO[C@H]3[C@@H]2N2CCCC2)c1C | inconclusive [inhibitor, full curve, poor fit] | – | –
2 | CC(=O)N1CCN([C@H]2[C@@H]3OC[C@@H](O3)[C@@H](NC(=O)Nc3ccccc3)[C@@H]2O)CC1 | inconclusive [inhibitor, partial curve] | – | –
3 | Cc1noc([C@@H]2CC(F)(F)CN2)n1 | inconclusive [inhibitor, single point] | – | –
4 | CCOc1cc2c(c(F)c1OCC)C(=N)N(CC(=O)c1cc(N3CCOCC3)c(OC)c(C(C)(C)C)c1)C2 | inconclusive [inhibitor, single point] | – | –
5 | Cc1ccc(C(=O)N2CC3CC(C2)[C@H]2CCCC(=O)N2C3)s1 (stereo partly specified) | inconclusive [inhibitor, full curve, poor fit] | – | –
6 | COc1ccc(-c2cc3c(=O)n(CCNC(=O)Cc4ccsc4)ccn3n2)cc1 | inconclusive [inhibitor, single point] | – | –
7 | COc1ccccc1CN(C)C(=O)CC1C(=O)NCCN1CC1CCCCC1 (stereo unspecified) | inconclusive [inhibitor, full curve, poor fit] | – | –
8 | O=C1Cc2c(-c3cccc(CO)c3)n[nH]c2CN1c1ccccc1 | – | inactive: -2.64% [at 88.5 µM] | –
9 | COc1ccc(NC(=O)[C@H]2CN(Cc3ccccc3)C[C@H]2C(=O)O)cn1 | inconclusive [inhibitor, single point] | – | –
10 | Cc1cc(C(=O)Nc2cccc(C(=O)Nc3cccc(C(F)(F)F)c3)c2)on1 | inconclusive [inhibitor, single point] | – | –
11 | COc1cc(Cl)ccc1C(=O)N1CCC2(CC1)NC(=O)N(c1ccccc1)N2 | inconclusive [inhibitor, single point] | – | –
12 | CC(Cc1cc2c(c(C(N)=O)c1)N(CCCO)CC2)NCCOc1ccccc1OCC(F)(F)F (stereo unspecified) | – | inactive: -11.2% | –
13 | N#C/C(=C\c1ccc(O)c(O)c1)C(=O)NCc1ccccc1 | inconclusive [inhibitor, single point] | – | –
14 | COc1ccccc1-c1cccc(C(=O)N2CCN(C(=O)NC(C)C)CC2)c1 | inconclusive [inhibitor, single point] | – | –
15 | O=C1Nc2ccccc2O[C@H]2C[C@@H]1N(Cc1ccc(C(F)(F)F)cc1)C2 | inconclusive [inhibitor, partial curve, poor fit] | – | –
16 | COc1ccccc1-c1cc2[nH]ccc2c(C(=O)NCc2c(C)cc(C)[nH]c2=O)n1 | inconclusive [inhibitor, full curve, poor fit] | – | –
17 | N#CC(=C(\N)Sc1ccccc1N)/C(C#N)=C(/N)Sc1ccccc1N | inconclusive [inhibitor, partial curve, poor fit] | – | –
18 | NC(=O)c1cccnc1N1CCC(n2cc(-c3ccccc3Cl)nn2)CC1 | inconclusive [inhibitor, single point] | – | –
19 | O=C(Cn1nc2c(cc1=O)CCCCC2)NCc1ccccc1 | – | – | inactive
20 | COCc1cn(C[C@H]2C[C@@H](NC(=O)c3ccc4c(c3)OCO4)[C@H](O)[C@@H]2O)nn1 | – | inactive: -7.86% [at 88.5 µM] | –
21 | Cc1cc(C(=O)NCc2cccs2)c2c(C3CCNCC3)noc2n1 | inconclusive [inhibitor, partial curve, poor fit] | – | –

Row | Structure (SMILES) | Potency | activity change, negative = inhibition | outcome
22 | COc1ccccc1C(=O)N1CCC(c2nnc3n2C(C(=O)O)CC3)CC1 (stereo unspecified) | inconclusive [inhibitor, single point] | – | –
23 | Cc1nc2scc(CC(=O)NCC(C)C)n2c(=O)c1-c1cc(C)n(-c2ccc(C(C)C)cc2)n1 | inconclusive [inhibitor, partial curve, poor fit] | – | –
24 | CN(Cc1cccnc1)c1ccc2ncc(Nc3cccc(C(F)(F)F)c3)n2n1 | inconclusive [inhibitor, single point] | – | –
25 | COc1ccc(NC(=O)N[C@H]2[C@H](O)[C@@H](N3CCN(c4ccccc4)CC3)[C@@H]3OC[C@H]2O3)cc1 | inconclusive [inhibitor, single point] | – | –
26 | O=C(NC[C@H]1O[C@@H](CO)[C@@H](O)[C@H]1N1CCN(c2ccccn2)CC1)c1ccco1 | inconclusive [inhibitor, partial curve, poor fit] | – | –
27 | COc1ccc(NC(=O)N2CCC(N3CC4CC(C3)[C@H]3CCCC(=O)N3C4)CC2)cc1OC (stereo partly specified) | inconclusive [inhibitor, partial curve, poor fit] | – | –
28 | COc1cccc(CNC(=O)C2CN(c3ccc(F)cc3)C(=O)N2)c1 (stereo unspecified) | inconclusive [inhibitor, single point] | – | –
29 | CC(C)CN(Cc1cccnc1)C1CN(S(=O)(=O)Cc2ccccc2)C1 | inconclusive [inhibitor, full curve, poor fit] | – | –
30 | OC(c1ccccc1)c1cc2n(n1)CCN(Cc1cncn1C1CC1)C2 (stereo unspecified) | inconclusive [inhibitor, single point] | – | –
31 | O=C1NCCCCCCN(C(=O)c2ccncc2)[C@H]2C[C@H](c3nc(Cc4ccccc4)no3)C[C@@H]12 | – | – | inactive
32 | COc1ccc(C2(C(=O)N3CCC(Cc4nc(-c5ccccc5)no4)CC3)CC2)cc1 | – | – | inactive
33 | Cc1cc(-c2ccc(S(=O)(=O)NC3CCOC4(CCOCC4)C3)o2)on1 (stereo unspecified) | inconclusive [inhibitor, full curve] | – | –
34 | Cc1cccc(NC(=O)c2ccc3c(c2)N(S(C)(=O)=O)CC3)c1C | inconclusive [inhibitor, partial curve, poor fit] | – | –
35 | O=C(CC(c1cccc([N+](=O)[O-])c1)c1cn(Cc2ccc(F)cc2)c2ccccc12)N1CCCC1 (stereo unspecified) | inconclusive [inhibitor, single point] | – | –
36 | C/C=C/c1ccc(O[C@@H]2O[C@H](CO)[C@@H](O)[C@H](O)[C@H]2O)c(OC)c1 | inconclusive [inhibitor, full curve] | – | –
37 | Cc1ccc(C(=O)N2CCC(n3cc(-c4nc(C5CC5)no4)nn3)C2)s1 (stereo unspecified) | – | – | inactive
38 | CC(C)(C)C(=O)NC[C@H]1O[C@H](Cc2cc(-c3ccc(F)cc3)on2)CC[C@@H]1O | – | inactive: -11.6% [at 88.5 µM] | –
39 | CN(C)C[C@@H]1CN(S(C)(=O)=O)C[C@H]1NC(=O)c1ccc(Cl)cc1 | inconclusive [inhibitor, single point] | – | –
40 | COc1cccc(Nc2ncc(-c3ccccc3)c3c2OCC3)c1 | inconclusive [inhibitor, single point] | – | –
41 | Cc1nc(CN2CCOC3(CCN([S+](=O)([O-])c4ccccc4C)CC3)C2=O)cs1 | inconclusive [inhibitor, full curve] | – | –
42 | CC(C)c1ccc(CN2CCCC3(CCN(S(C)(=O)=O)C3)C2=O)cc1 (stereo unspecified) | inconclusive [inhibitor, full curve, poor fit] | – | –

Row | Structure (SMILES) | Potency | activity change, negative = inhibition | outcome
43 | O=C1Nc2ccccc2C(=O)N2CC[C@H](NS(=O)(=O)c3cccs3)[C@@H]12 | – | inactive: -0.115% [at 88.5 µM] | –
44 | COc1ccc(-c2nc3cc(C)ccc3cc2CN2CCN(C)C(CCO)C2)cc1 (stereo unspecified) | inconclusive [inhibitor, single point] | – | –
45 | COc1cccc(CC(=O)N2CCC(N3CC4CC(C3)[C@H]3CCCC(=O)N3C4)CC2)c1 (stereo partly specified) | – | – | inactive
46 | COc1cc2c(cc1OC)C(=O)C(CC1CCN(Cc3ccccc3)CC1)C2 (stereo unspecified) | inconclusive [inhibitor, single point] | – | –
47 | CC(=O)N1CCN(c2cc(-c3ccccc3)nc3c(C)noc23)CC1 | inconclusive [inhibitor, full curve] | – | –
48 | CCC(=O)NCC12CCC=C1N(C)C(=O)CC2 (stereo unspecified) | inconclusive [inhibitor, single point] | – | –
49 | COc1ccc(CNC(=O)C[C@@H]2C[C@H]3O[C@H](CNCc4ccccc4Cl)[C@@H](O)[C@H]3O2)cc1 | – | inactive: -14% | –
50 | O=C(NC1CCCCCC1)C1CCc2nnc(-c3cccc(C(F)(F)F)c3)n21 (stereo unspecified) | inconclusive [inhibitor, full curve, poor fit] | – | –
51 | CCCCCNc1ncnc2c1CN(c1ccc(Cl)cc1)C(=O)CN2C | inconclusive [inhibitor, single point] | – | –
52 | COc1ccc(-c2cn(C)c(=O)n3cc(COc4ccnn4C)nc23)cc1 | – | inactive: 3.88% [at 88.5 µM] | –
53 | O=C(Nc1nccs1)[C@@H]1C[C@@H](c2ccc(F)cc2)N(CCOc2ccccc2)C1 | inconclusive [inhibitor, single point] | – | –
54 | O=c1cc(-c2cccnc2)oc2c(NCc3ccccc3)nccc12 | inconclusive [inhibitor, full curve, poor fit] | – | –
55 | N#CC(=Cc1ccc(O)c(O)c1)C(=O)NCc1ccccc1 | inconclusive [inhibitor, partial curve, poor fit] | – | –
56 | CN(c1cc(=O)c2ccnc(-c3ccccc3Oc3ccccc3)c2o1)C1CCOCC1 | inconclusive [inhibitor, full curve, poor fit] | – | –
57 | COc1ccccc1-c1cc(Nc2cccc(CS(N)(=O)=O)c2)ncn1 | inconclusive [inhibitor, single point] | – | –
58 | CC(C)C[C@@H]1N[C@H](C(=O)NCc2ccccc2)Cc2c[nH]c3cccc1c23 | – | inactive: -15% [at 88.5 µM] | –
59 | COc1ncccc1-c1nc(-c2c(C)noc2C)cc2cc(C(C)C)oc12 | – | inactive: -3.69% [at 88.5 µM] | –
60 | O=C(Nc1ccc(C2(C(=O)O)CCC2)cc1)C1CC1 | – | – | inactive
61 | O=C(c1ccc(Cl)cc1)N1C[C@@H](F)[C@@H](OCc2nc3ccccc3[nH]2)C1 | inconclusive [inhibitor, single point] | – | –
